The other results are listed elsewhere or left out. Each Rep nickase domain was tested in vitro on the same pool of single strands for 1 h at 37 °C with 3 µM enzyme; only the middle of the 90-letter strands is printed. Numbers give uncut DNA relative to the enzyme-free pool, as log2; strong cutting gives strongly negative numbers. There is no active / inactive call. Shares of all reads are compared; where an enzyme cuts many sequences, the uncut ones exceed 0.
Tested on: T1, Rep nickase domain of Muscovy duck circovirus
T1 sequence (residues 1-111, tag not shown): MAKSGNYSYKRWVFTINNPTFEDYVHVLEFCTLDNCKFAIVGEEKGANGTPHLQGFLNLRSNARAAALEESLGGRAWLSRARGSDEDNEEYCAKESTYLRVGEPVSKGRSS
Assay: uncleaved DNA left, log2 of reads against the no-enzyme library (log2 ratio); higher = less cleavage (more negative = more Rep cleavage of the k-mer); sequences stand for … in CTCGTCCG…ACCGGAGA
Description: (§1)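 A pool of 90-nt single-stranded DNAs with seven random bases just before the constant AC of the nick site (name = the seven bases) was cut by 3 µM recombinant His6-SUMO-tagged Rep nickase domain (300 nM DNA, 50 mM HEPES pH 8.0, 50 mM NaCl, 1 mM MnCl2, 1 h, 37 °C, three replicates). Uncut DNA was amplified and sequenced.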

| Sequence | uncleaved DNA left (log2) |
| --- | --- |
| GCGTGTC | 0.0581 |
| CGGGCGA | 0.147 |
| TCCTCTT | -1.92 |
| CGGCGGC | 0.128 |
| ATATGAG | 0.0788 |
| AACTCTG | 0.0441 |
| AGGGGCT | -0.0453 |
| CAGTTAT | -0.422 |
| GAGGAGC | 0.239 |
| CACTCCC | 0.0839 |
| TCCTTAC | -0.161 |
| GTCCATA | 0.0604 |
| AAATCCT | -3.78 |
| CGTAATC | 0.0593 |
| CTTTCGT | 0.0294 |
| AGTGCCG | -0.0876 |
| GTTAGGG | 0.0101 |
| CTTAGTG | 0.0372 |
| TACTTGG | 0.111 |
| GTGTATG | 0.387 |

| Sequence | uncleaved DNA left (log2) |
| --- | --- |
| GGTTGTT | -2.19 |
| TATTTGG | -0.00439 |
| CTCAGAC | 0.0374 |
| CGTAGTC | 0.0939 |
| AAGTCGT | 0.000661 |
| CGGGGAG | 0.0442 |
| CGGACCT | -0.0859 |
| ACTCCAC | 0.0948 |
| ATTTCAC | 0.0801 |
| TCAGGTC | 0.0682 |
| AACTAGG | 0.102 |
| ACACAAA | 0.0767 |
| TCTAGAT | -0.0496 |
| ACACAGA | 0.143 |
| TATGTTC | 0.0824 |
| GCCCCTG | -0.142 |
| GACGCGT | 0.056 |
| CTAGCCA | -0.0459 |
| GAGACAG | 0.154 |
| TTGGAGA | 0.0168 |

Tested on: T2, Rep nickase domain of banana bunchy top virus
T2 sequence (residues 1-94, tag not shown): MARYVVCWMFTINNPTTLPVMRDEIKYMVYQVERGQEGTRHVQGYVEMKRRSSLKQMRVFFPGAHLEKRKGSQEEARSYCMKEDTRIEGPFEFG
Assay: as above
Description: as §1

| Sequence | uncleaved DNA left (log2) |
| --- | --- |
| GCGTGTC | -0.0808 |
| CGGGCGA | 0.169 |
| TCCTCTT | -0.23 |
| CGGCGGC | 0.151 |
| ATATGAG | -0.00489 |
| AACTCTG | 0.0632 |
| AGGGGCT | 0.0454 |
| CAGTTAT | -2.52 |
| GAGGAGC | 0.117 |
| CACTCCC | -0.0689 |
| TCCTTAC | -0.205 |
| GTCCATA | 0.207 |
| AAATCCT | -0.186 |
| CGTAATC | 0.134 |
| CTTTCGT | 0.0235 |
| AGTGCCG | -0.203 |
| GTTAGGG | -0.00557 |
| CTTAGTG | 0.0218 |
| TACTTGG | 0.0203 |
| GTGTATG | 0.112 |

| Sequence | uncleaved DNA left (log2) |
| --- | --- |
| GGTTGTT | -0.154 |
| TATTTGG | -0.0058 |
| CTCAGAC | 0.0342 |
| CGTAGTC | -0.0989 |
| AAGTCGT | -0.109 |
| CGGGGAG | 0.000408 |
| CGGACCT | -0.166 |
| ACTCCAC | 0.0849 |
| ATTTCAC | -0.0329 |
| TCAGGTC | 0.0682 |
| AACTAGG | 0.203 |
| ACACAAA | 0.123 |
| TCTAGAT | -0.0312 |
| ACACAGA | 0.112 |
| TATGTTC | -0.00789 |
| GCCCCTG | 0.0738 |
| GACGCGT | -0.0661 |
| CTAGCCA | 0.108 |
| GAGACAG | 0.257 |
| TTGGAGA | -0.129 |

Tested on: T3, Rep nickase domain of cabbage leaf curl virus
T3 sequence (residues 1-116, tag not shown): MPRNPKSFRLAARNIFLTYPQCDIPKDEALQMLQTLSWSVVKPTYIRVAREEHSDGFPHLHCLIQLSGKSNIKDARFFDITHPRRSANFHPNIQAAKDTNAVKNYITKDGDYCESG
Assay: as above
Description: as §1

| Sequence | uncleaved DNA left (log2) |
| --- | --- |
| GCGTGTC | 0.163 |
| CGGGCGA | -0.234 |
| TCCTCTT | -0.139 |
| CGGCGGC | 0.087 |
| ATATGAG | -0.694 |
| AACTCTG | 0.107 |
| AGGGGCT | 0.439 |
| CAGTTAT | -0.0447 |
| GAGGAGC | 0.726 |
| CACTCCC | 0.0162 |
| TCCTTAC | -0.129 |
| GTCCATA | 0.476 |
| AAATCCT | -3.84 |
| CGTAATC | 0.154 |
| CTTTCGT | -0.508 |
| AGTGCCG | -0.807 |
| GTTAGGG | 0.149 |
| CTTAGTG | -0.643 |
| TACTTGG | -0.182 |
| GTGTATG | 0.256 |

| Sequence | uncleaved DNA left (log2) |
| --- | --- |
| GGTTGTT | -0.053 |
| TATTTGG | 0.031 |
| CTCAGAC | 0.0793 |
| CGTAGTC | 0.189 |
| AAGTCGT | -0.4 |
| CGGGGAG | -0.0897 |
| CGGACCT | 0.216 |
| ACTCCAC | -0.0514 |
| ATTTCAC | -0.175 |
| TCAGGTC | 0.371 |
| AACTAGG | 0.274 |
| ACACAAA | -0.0489 |
| TCTAGAT | 0.21 |
| ACACAGA | -0.209 |
| TATGTTC | 0.0456 |
| GCCCCTG | -0.137 |
| GACGCGT | -0.731 |
| CTAGCCA | -0.15 |
| GAGACAG | 0.815 |
| TTGGAGA | -0.0427 |
